Experimental data: the supplement of paper PMC9446081
The whole screen tested about 39,000 compounds, of which about 220 (0.56%) showed activity. This is one part of the list.
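Note: static incubation at 37 °C against the wild-type strain, values averaged over two biological replicates.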

The molecules below were run on Escherichia coli K-12 BW25113 (assay: relative growth (OD600 normalised to plate interquartile mean) (fraction); higher = less growth inhibition, active = 0.2 or less). Conditions: 50 µM; LB; incubation time: overnight (16-24 h).
In the case of `C[C@@H]1CN([C@H](C)CO)C(=O)Cc2cc(NC(=O)Nc3cccc4ccccc34)ccc2O[C@@H]1CN(C)Cc1ccc(C(=O)O)cc1`, the relative growth is reported as inactive: 0.994.
`C[C@@H]1O[C@@H](OC[C@H]2O[C@@H](OCCc3ccccc3)[C@H](O)[C@@H](O)[C@@H]2O)[C@H](O)[C@H](O)[C@H]1O` was tested, and the relative growth was inactive: 0.954.
In the case of `Cc1noc(C)c1S(=O)(=O)N(C)C[C@@H]1Oc2ccc(NS(=O)(=O)c3ccc(F)cc3)cc2CC(=O)N([C@@H](C)CO)C[C@@H]1C`, the relative growth is reported as inactive: 0.975.
In the case of `C[C@H]1CN([C@@H](C)CO)C(=O)c2cc(NS(=O)(=O)c3cccs3)ccc2O[C@@H]1CN(C)S(=O)(=O)c1cn(C)cn1`, the relative growth is reported as inactive: 0.999.
`CC(C)CC#Cc1cnc2c(c1)C(=O)N([C@@H](C)CO)C[C@@H](C)[C@H](CN(C)C(=O)c1ccc3c(c1)OCO3)O2` was tested, and the relative growth was inactive: 0.969.
In the case of `O=S(=O)(C1CCCCC1)C1CNC1`, the relative growth is reported as inactive: 0.977.
In the case of `COc1ccc(S(=O)(=O)N(C)C[C@@H]2Oc3ccc(NC(=O)NC(C)C)cc3CC(=O)N([C@H](C)CO)C[C@@H]2C)cc1`, the relative growth is reported as inactive: 1.03.
`CN1CCN(C(=O)C[C@@H]2CC[C@@H]3[C@H](COc4ccc(NC(=O)c5cscn5)cc4C(=O)N3C)O2)CC1` was tested, and the relative growth was inactive: 0.913.
With `NNC(=O)c1nc(-c2ccccc2)no1` the relative growth was inactive: 0.977.
With `C[C@@H]1CCCCO[C@H](CN(C)CC2CCCCC2)[C@H](C)CN([C@@H](C)CO)C(=O)c2cc(NS(=O)(=O)c3cccs3)ccc2O1` the relative growth was inactive: 1.01.
`C[C@@H]1CCCCO[C@@H](CN(C)Cc2ccc(C(F)(F)F)cc2)[C@@H](C)CN([C@@H](C)CO)C(=O)c2cc(NS(=O)(=O)c3ccc(F)cc3)ccc2O1` was tested, and the relative growth was inactive: 1.06.
In the case of `C[C@H](CO)N1C[C@H](C)[C@@H](CN(C)C(=O)NC2CCCCC2)OCCCC[C@H](C)Oc2ccc(NS(=O)(=O)c3ccc(Cl)cc3)cc2C1=O`, the relative growth is reported as inactive: 1.02.
`CO[C@H]1CN(C)C(=O)c2ccc(NS(=O)(=O)c3ccccc3)cc2OC[C@H](C)N(C(=O)NC(C)C)C[C@@H]1C` was tested, and the relative growth was inactive: 0.969.
`C[C@@H]1CN([C@@H](C)CO)C(=O)Cc2cc(NC(=O)C3CCCCC3)ccc2O[C@H]1CN(C)Cc1ccc(C(F)(F)F)cc1` was tested, and the relative growth was inactive: 0.991.
In the case of `C[C@@H]1CN([C@H](C)CO)C(=O)Cc2cc(NC(=O)Cn3cnnn3)ccc2O[C@H]1CN(C)Cc1ccc(C(=O)Nc2ccccc2N)cc1`, the relative growth is reported as inactive: 1.05.
In the case of `C[C@H](CO)N1C[C@H](C)[C@@H](CN(C)Cc2ccc(Oc3ccccc3)cc2)Oc2ccc(NC(=O)CCCN(C)C)cc2CC1=O`, the relative growth is reported as inactive: 0.965.
For `Cc1ccc(S(=O)(=O)N2C[C@H](O)COC[C@H]3O[C@H](CC(=O)NCCCN(C)C)CC[C@@H]32)cc1`, the relative growth was inactive: 1.03.
`COc1cccc(S(=O)(=O)N(C)C[C@@H]2Oc3ncc(C#CC(C)C)cc3C(=O)N([C@H](C)CO)C[C@@H]2C)c1` was tested, and the relative growth was inactive: 0.995.
With `Cc1noc(C)c1NC(=O)Nc1ccc2c(c1)C(=O)N([C@@H](C)CO)C[C@@H](C)[C@@H](CN(C)Cc1ccncc1)OCCCC[C@H](C)O2` the relative growth was inactive: 0.964.
For `C#Cc1ccc([C@@H]2C=C(C(=O)N3CCN(Cc4ccc5c(c4)OCO5)CC3)O[C@H](OCC)[C@H]2CCCO)cc1`, the relative growth was inactive: 1.02.
In the case of `Cl.OC(CCN1CCCCC1)(c1ccccc1)C1CCCCC1` (configuration not stated), the relative growth is reported as inactive: 0.988.
With `C[C@@H]1CN([C@H](C)CO)C(=O)Cc2cc(NC(=O)Nc3ccccc3)ccc2O[C@@H]1CN(C)Cc1ccc(Oc2ccccc2)cc1` the relative growth was inactive: 0.993.
With `COc1ccc(NC(=O)N(C)C[C@H]2OCCCC[C@H](C)Oc3ccc(NS(=O)(=O)c4ccc(F)cc4)cc3C(=O)N([C@@H](C)CO)C[C@@H]2C)cc1` the relative growth was inactive: 0.933.
With `COc1cccc(C(=O)Nc2ccc3c(c2)C(=O)N(C)[C@H]2CC[C@H](CC(=O)NCC(F)(F)F)O[C@H]2CO3)c1` the relative growth was inactive: 0.991.
For `CCCNC(=O)Nc1ccc2c(c1)C(=O)N(C)C[C@@H](OC)[C@@H](C)CN(Cc1ccc(-c3ccccn3)cc1)[C@@H](C)CO2`, the relative growth was inactive: 1.02.
For `CCCCC/C=C/CCC(=O)N[C@H]1[C@H](Oc2c3cc4cc2Oc2ccc(cc2Cl)[C@@H](O[C@@H]2O[C@H](CO)[C@@H](O)[C@H](O)[C@H]2NC(C)=O)[C@@H]2NC(=O)[C@H](NC(=O)[C@@H]4NC(=O)[C@H]4NC(=O)[C@@H](Cc5ccc(c(Cl)c5)O3)NC(=O)[C@H](N)c3ccc(O)c(c3)Oc3cc(O)cc4c3)c3ccc(O)c(c3)-c3c(O[C@H]4O[C@H](CO)[C@@H](O)[C@H](O)[C@@H]4O)cc(O)cc3[C@@H](C(=O)O)NC2=O)O[C@H](CO)[C@@H](O)[C@@H]1O`, the relative growth was inactive: 0.978.
With `CC(=O)n1cc([C@@H]2C=C(C(=O)N3CCN(Cc4ccc5c(c4)OCO5)CC3)O[C@H](OCc3ccc(COC(=O)NCCCCCC(=O)NO)cc3)C2)c2ccccc21` the relative growth was inactive: 0.969.
With `[Cl][Ca][Cl]` the relative growth was inactive: 1.14.
For `COc1ccc(CN(C)C[C@H]2OCCCC[C@H](C)Oc3ccc(NC(=O)Nc4c(C)noc4C)cc3C(=O)N([C@@H](C)CO)C[C@H]2C)cc1`, the relative growth was inactive: 0.985.
For `C[C@@H]1CCCCO[C@H](CN(C)S(C)(=O)=O)[C@@H](C)CN([C@@H](C)CO)C(=O)c2cc(NS(C)(=O)=O)ccc2O1`, the relative growth was inactive: 0.997.
In the case of `C[C@@H]1CN([C@H](C)CO)C(=O)Cc2cc(N(C)C)ccc2O[C@H]1CN(C)S(=O)(=O)c1ccc(F)cc1`, the relative growth is reported as inactive: 1.
With `C[C@H]1CN([C@@H](C)CO)C(=O)c2cc(NC(=O)C3CCCCC3)ccc2O[C@H]1CN(C)Cc1ccc(C(F)(F)F)cc1` the relative growth was inactive: 0.97.
`C[C@@H]1CN([C@H](C)CO)C(=O)c2cc(NC(=O)Nc3ccc(F)cc3)ccc2O[C@@H](C)CCCCO[C@@H]1CN(C)CC1CCCCC1` was tested, and the relative growth was inactive: 1.03.
`C[C@@H]1CCCCO[C@H](CN(C)Cc2ccc(C(F)(F)F)cc2)[C@@H](C)CN([C@@H](C)CO)C(=O)c2cc(NS(=O)(=O)c3cn(C)cn3)ccc2O1` was tested, and the relative growth was inactive: 0.945.
For `COCC#Cc1ccc2c(c1)O[C@H](CN(C)C(=O)c1ccccc1)[C@@H](C)CN([C@@H](C)CO)S2(=O)=O`, the relative growth was inactive: 1.01.
`COCC(=O)Nc1ccc2c(c1)[C@@H]1C[C@H](CC(=O)N3CCOCC3)O[C@@H](CO)[C@@H]1O2` was tested, and the relative growth was inactive: 0.997.
In the case of `COc1ccc(S(=O)(=O)N[C@@H]2CC[C@@H](CC(=O)N3CCN(c4ccccc4)CC3)O[C@@H]2CO)cc1`, the relative growth is reported as inactive: 0.993.
With `C[C@H](CO)N1C[C@H](C)[C@@H](CN(C)CC2CCCCC2)Oc2ccc(NC(=O)Nc3cccc4ccccc34)cc2C1=O` the relative growth was inactive: 1.02.
`C[C@H](CO)N1C[C@H](C)[C@H](CN(C)C(=O)Nc2cc(F)ccc2F)Oc2cc(/C=C/c3ccccc3)ccc2S1(=O)=O` was tested, and the relative growth was inactive: 1.01.
For `OCC(O)CN1CCN(c2ccccc2)CC1` (configuration not stated), the relative growth was inactive: 1.11.
`C[C@@H]1CN([C@H](C)CO)C(=O)c2cc(NC(=O)Nc3ccc4c(c3)OCO4)ccc2O[C@@H]1CN(C)Cc1ccc(C(F)(F)F)cc1` was tested, and the relative growth was inactive: 1.07.
`C[C@@H]1CN([C@@H](C)CO)C(=O)Cc2cc(NC(=O)Nc3ccc(C(F)(F)F)cc3)ccc2O[C@@H]1CN(C)C(=O)NC1CCCCC1` was tested, and the relative growth was inactive: 1.06.
For `C[C@@H]1CN([C@H](C)CO)C(=O)CCCn2nncc2CO[C@@H]1CN(C)C(=O)c1cc(-c2ccccc2)on1`, the relative growth was inactive: 0.986.
With `O=C(C[C@H]1C[C@@H]2c3cc(NS(=O)(=O)c4ccc(F)cc4)ccc3O[C@@H]2[C@@H](CO)O1)N1CCCCC1` the relative growth was inactive: 0.962.
`CS(=O)(=O)Nc1ccc2c(c1)[C@H]1C[C@H](CC(=O)NCC3CC3)O[C@H](CO)[C@H]1O2` was tested, and the relative growth was inactive: 0.983.
For `C[C@@H]1CN([C@@H](C)CO)C(=O)c2cc(NC(=O)Nc3cccc4ccccc34)ccc2O[C@@H]1CN(C)Cc1ccc(C(=O)Nc2ccccc2N)cc1`, the relative growth was inactive: 0.964.
For `C[C@@H]1CN([C@@H](C)CO)S(=O)(=O)c2ccc(-c3ccccc3F)cc2O[C@H]1CN(C)S(C)(=O)=O`, the relative growth was inactive: 1.01.
For `C[C@@H]1CCCCO[C@H](CN(C)C(=O)Nc2ccc(C(F)(F)F)cc2)[C@H](C)CN([C@@H](C)CO)C(=O)c2cc(NC(=O)Nc3ccc(F)cc3)ccc2O1`, the relative growth was inactive: 1.05.
With `C[C@@H]1CN([C@H](C)CO)C(=O)Cc2cc(NS(=O)(=O)c3ccc(F)cc3)ccc2O[C@@H]1CN(C)CC1CC1` the relative growth was inactive: 0.971.
For `CO[C@H]1O[C@H](CO)[C@@H](OC(=O)c2ccc(Br)cc2)[C@@H]2OC(=O)[C@H](Cc3cccc(Br)c3)C/C=C/C[C@@H](Cc3cccc(Br)c3)C(=O)O[C@@H]12`, the relative growth was inactive: 1.02.
With `N[C@H]1CCN(c2nc3c(cc2F)c(=O)c(C(=O)O)cn3-c2ccc(F)cc2F)C1` the relative growth was active: 0.17.
With `C[C@@H]1CN([C@@H](C)CO)C(=O)c2cc(NC(=O)c3ccccc3)ccc2O[C@@H](C)CCCCO[C@@H]1CN(C)Cc1ccccc1` the relative growth was inactive: 0.876.
In the case of `COc1cc2c(cc1OC)C(=O)OC2`, the relative growth is reported as inactive: 0.911.
For `Nc1nc(N)nc(-c2ccccc2)n1`, the relative growth was inactive: 1.01.
For `O=C(C[C@H]1CC[C@@H]2[C@H](COC[C@@H](O)CN2C(=O)Nc2ccc(Cl)c(Cl)c2)O1)NCc1ccncc1`, the relative growth was inactive: 0.981.
For `COc1ccc(S(=O)(=O)N(C)C[C@@H]2Oc3c(NS(=O)(=O)c4cn(C)cn4)cccc3C(=O)N([C@H](C)CO)C[C@H]2C)cc1`, the relative growth was inactive: 0.982.
In the case of `COc1ccc(S(=O)(=O)N(C)C[C@@H]2OCCCC[C@H](C)Oc3ccc(NC(=O)Nc4ccc5c(c4)OCO5)cc3C(=O)N([C@H](C)CO)C[C@H]2C)cc1`, the relative growth is reported as inactive: 1.
